The structures appear in SMILES notation. “And” between values parts separate entries of the source, which are not always exact repeats. Equal values may be shown once. Screen size: about 48,000 compounds; about 1,200 (2.5%) were called active. Not shown: some 2% with an inconclusive outcome.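 Rule for the calls: active = activation of at least 60% and not above a set upper limit (about 1 call in 100 departs from these limits); inconclusive = activation of 40% to 60%, or above that upper limit; inactive = activation under 40%.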 The list shows a part of the results.

Chain of UniProt O75388 (O75388 whole entry, looked up): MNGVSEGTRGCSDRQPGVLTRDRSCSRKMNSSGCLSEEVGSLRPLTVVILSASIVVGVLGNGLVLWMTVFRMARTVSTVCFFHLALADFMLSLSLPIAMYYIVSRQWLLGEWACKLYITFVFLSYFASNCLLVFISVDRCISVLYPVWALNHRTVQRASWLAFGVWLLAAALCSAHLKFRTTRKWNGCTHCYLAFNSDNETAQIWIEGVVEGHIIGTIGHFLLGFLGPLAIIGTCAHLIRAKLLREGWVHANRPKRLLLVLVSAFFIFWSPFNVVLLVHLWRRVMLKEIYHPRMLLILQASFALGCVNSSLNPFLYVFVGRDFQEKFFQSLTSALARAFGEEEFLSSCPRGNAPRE

The target of this assay is Probable G-protein coupled receptor 32 (Homo sapiens) (UniProt O75388). As to the kind of experiment: qHTS for Agonists of Human Resolvin D1 Receptor DRV1. Note: 0% is about no effect. As to conditions: CHO-K1 GPR32 beta-arrestin PathHunter luminescence, 90 min; at 76.9 µM; hits give high values; zero percent set by DMSO-only wells. Put shortly:
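CHO-K1 cells stably expressing ProLink-tagged GPR32 and Enzyme Activator-tagged beta-arrestin were seeded at 2,500 cells/well overnight, exposed to compounds for 90 min at 37 °C, then read by beta-Gal complementation chemiluminescence after 1 h detection reagent.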
A general note: In qHTS, concentration-response curves come from the screen itself.
`CC1=C(C(=O)OCc2ccc(C)cc2)C(c2ccccc2F)CC(=O)N1` (centres undefined): the activation was active: 66.8%.

Take `COc1cc(NC(=O)CCc2c(C)nn(-c3ccc(N4CCOCC4)nn3)c2C)cc(OC)c1OC`: the activation was inactive: 5.49%.

Consider `O=C(NCc1ccccc1F)C1CCN(c2nnc(-n3cccc3)s2)CC1`, for which the activation was inactive: 30.8%.

Take `COc1ccc2c(c1)c(=O)c(C(=O)c1ccccc1)cn2CC(=O)Nc1ccc2c(c1)OCCO2`: the activation is inactive: -29.2%.

As for `COc1ccc(Cl)cc1NC(=O)Cn1ncc2c3ccccc3n(C)c2c1=O`, the activation was inactive: 4.27%.

Take `CCCCCCCCCCCCCCNCCO`: the activation was inactive: 12%.

Take `Cc1ccc2[nH]c3c(=O)n(CC(=O)NCc4ccco4)ncc3c2c1`: the activation is inactive: 8.65%.

As for `CCCN(Cc1cccs1)C(=O)Nc1cc(Cl)ccc1C`, the activation is inactive: -5.54%.

`Cc1nn(CC(=O)NCc2ccc(F)cc2)c2ccccc12`: the activation is inactive: -13.1%.

On to `Cc1ccc(OCCSc2nnc(-c3cccs3)o2)cc1Cl`, for which the activation is inactive: 20.7%.

On to `Cc1ccc(C)c(N2CCN(C(=O)CCC(=O)Nc3ccc4nc(N5CCCCC5)cc(C)c4c3)CC2)c1`, for which the activation was inactive: 39.3%.

In the case of `O=C(NCc1ccc(Cl)cc1)c1ccc2c(Cl)c3c(nc2c1)CCCC3`, the activation was inactive: -19.4%.

On to `CC(=O)Nc1ccc(NC(=O)C2CCN(c3c(NC(C)=O)c(C)nn3-c3ccccc3)CC2)cc1`, for which the activation is inactive: -2.14%.

As for `CCOC(=O)c1ccc2nc(C)cc(Nc3cccc(C(=O)O)c3)c2c1`, the activation is inactive: -9.84%.

As for `CCOC(=O)c1c(C)n(-c2ccccc2)c2ccc(OC(=O)c3ccccc3NC(=O)C(C)C)cc12`, the activation was inactive: 43.6%.

Consider `CCOC(=O)c1cccc(NC(=O)CCCn2nc(C)c3c(C)n(-c4ccccc4)nc3c2=O)c1`, for which the activation was inactive: 1.99%.

Turning to `O=C1OC2(c3ccc(O)cc3Oc3cc(O)ccc32)c2ccccc21`, the activation was active: 111%.

As for `COc1ccc(-c2nc3cc(C(C)C)ccc3o2)cc1NC(=O)c1ccccc1[N+](=O)[O-]`, the activation is inactive: -24.6%.

Turning to `Cn1c(SCC(=O)Nc2ccccc2)nnc1-c1ccccc1`, the activation was inactive: -3.28%.

In the case of `COc1ccc(Cl)cc1-n1nnc(-c2nc(-c3ccccc3)no2)c1C`, the activation is inactive: -5.99%.

For `COc1ccc(NC(=O)C2COc3ccccc3C2)cc1Cl` (centres undefined), the activation is inactive: -20.8%.

On to `Cc1ccc(Cn2c(CN3CCC(C(=O)NCc4ccccc4C)CC3)cc3ccccc32)cc1`, for which the activation is inactive: 4.89%.

For the molecule `CCOc1ccccc1CNC(=O)CCn1c(=O)c2cccn2c2ccc(F)cc21`, the activation was inactive: -17.6%.

For `COc1ccc2c(c1)c(=O)c(C(=O)c1ccc(C)c(C)c1)cn2CC(=O)Nc1ccc2c(c1)OCCO2`, the activation was inactive: -1.31%.

Consider `Cc1ccc(CNc2nc(-c3ccco3)nn2S(C)(=O)=O)cc1`, for which the activation is inactive: -8.03%.

On to `COC(=O)c1ccc(NC(=O)CCS(=O)(=O)c2ccc(Br)s2)cc1`, for which the activation was inactive: -13.5%.

For `Cc1nc(N2CCCC2)ncc1C(=O)NCc1cccc(Cl)c1`, the activation was inactive: 31.9%.

With `COc1ccccc1N1CCN(C(=O)Cn2c(=O)n3nc(-c4ccc(C)cc4)nc3c3ccccc32)CC1`, the activation is inactive: -0.132%.

On to `COc1ccc(NC(=O)c2cccc(N3CCCS3(=O)=O)c2)cc1OC`, for which the activation is inactive: 33.7%.

For `Cc1ccc2c(n1)Oc1ccc(C(C)C(=O)OCC(=O)N(C)C)cc1C2` (centres undefined), the activation was inactive: 1.2% and inactive: 4.74%.

As to `COc1ccc(C(=O)CSc2nc(C)cc(C)c2C(=O)Nc2ccccc2C)cc1`, the activation was inactive: -20.8%.

On to `COc1ccc(C)cc1NC(=O)CN1c2ccccc2S(=O)(=O)c2ccccc21`, for which the activation was inactive: -4.93%.

In the case of `Cc1nnc(N2C(=O)c3oc4ccccc4c(=O)c3C2c2ccc(C(C)(C)C)cc2)s1` (centres undefined), the activation was inactive: -10.8%.

For `CCc1ccc(NC(=O)CSc2nc3ccccc3nc2Cc2ccc(C)cc2)cc1`, the activation is inactive: 2.97%.

For `COC(=O)c1ccc(NC(=O)CC2C(=O)N(c3cccc(OC)c3)C(=O)N2Cc2ccco2)cc1` (centres undefined), the activation was inactive: -16%.

`COc1ccc(CCNC(=O)CCCn2c(=O)c3cccn3c3cccnc32)cc1OC`: the activation is inactive: -11.9%.

Regarding `Cc1ccc2c(CN3CCN(Cc4ccccc4Cl)CC3)cc(=O)oc2c1`, the activation is inactive: -16.1%.

Take `COc1ccccc1CNC(=O)Cc1c(C)c2c(cc(C)c3c(C)c(C)oc32)oc1=O`: the activation was inactive: -7.53%.

As for `CN1[C@@H](CC(=O)c2ccccc2)CCC[C@H]1C[C@H](O)c1ccccc1`, the activation was inactive: -8.59%.

For the molecule `COc1ccc(OCc2ccc(-c3nc(C#N)c(N4CCN(C)CC4)o3)o2)cc1`, the activation was inactive: -9.17%.

In the case of `Cc1ccccc1C(=O)c1cccn1CC(=O)NCc1ccc(Cl)cc1`, the activation is inactive: -19.3%.

In the case of `CCC1CN(C(=O)NCc2cccc(OC)c2)c2cc(Cl)ccc2O1` (centres undefined), the activation was inactive: -20.2%.

In the case of `CCCCC1CCC(C(=O)N2CC(=O)Nc3ccc(F)cc3C2c2ccc(F)cc2)CC1` (centres undefined), the activation was inactive: -35%.

Regarding `COc1ccc(C2CC(=O)Nc3c2c(=O)nc2c(C)cccn32)cc1OC` (centres undefined), the activation is inactive: 7.56%.

In the case of `Cc1nc2sc(C(=O)N(C)Cc3ccccc3)c(NC(=O)c3ccccc3)c2c(C)c1Cl`, the activation was inactive: 35.6%.

With `CCOC(=O)c1cc2c(=O)n3ccccc3nc2n(CC2CCCO2)c1=NC(=O)c1ccc(C(C)(C)C)cc1` (centres undefined), the activation was inactive: -3.04%.

With `CCOC(=O)c1c(NC(=O)COc2cccc(C(F)(F)F)c2)sc2c1CCC(C)C2` (centres undefined), the activation was inactive: -9.49%.

In the case of `CCN(CC)c1nn2c(=O)c(C(=O)NCCc3ccc(C)cc3)cnc2s1`, the activation is inactive: -7.17%.

Regarding `COc1ccc(NC(=O)c2ccc(CN3C(=O)CCn4nc(C)cc43)cc2)c(OC)c1`, the activation is inactive: -1.99%.

As for `CCn1c2ccccc2c2nnc(N3CCN(c4ccc(F)cc4)CC3)nc21`, the activation was inactive: -18.9%.

Take `CCCC(=O)Nc1ccc2c(c1)nc(CN1CCN(C(=O)OCC)CC1)n2C(C)C`: the activation was inactive: -0.477%.

With `COc1ccc(NC(=O)CSc2cn(CC(=O)N3CCCCC3)c3ccccc23)c(OC)c1`, the activation is inactive: -16.8%.

Turning to `CCOc1ccc(CNC(=O)c2ccc(Sc3ccc(Cl)cc3)c(NC(C)=O)c2)cc1`, the activation was inactive: -3.02%.

On to `Cc1cc(C)cc(Nc2ncnc3c2nc2n3CCCC2)c1`, for which the activation was inactive: -15.4%.
